# Measurements reported in the supplement of paper PMC8728848.
# The list shows a part of the results.
# How the values were obtained:
# Assay in all cases: glycan array binding signal (z-score within array); higher = stronger binding
# Conditions in all cases: glycan notation: IUPAC condensed, linker removed; mutation: R186I
# [1] = target: Neu5Ac(a2-3)Gal6S(b1-4)[Fuc(a1-3)]GlcNAc
# Summary of the method: (§1)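 From the Consortium for Functional Glycomics database, 3228 arrays were curated, keeping only those whose protein sequence was available. Binding is given as a within-array Z-score averaged across arrays sharing a protein sequence and across linkers. Negative Z-scores can be read as non-binding.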
# Neu5Ac(a2-3)GalNAc = target: Neu5Ac(a2-3)GalNAc
# Summary of the method: as §1
# [2] = target: Neu5Ac(a2-3)GalNAc(b1-4)GlcNAc
# Summary of the method: as §1
# [3] = target: Neu5Ac(a2-3)[GalNAc(b1-4)]Gal(b1-4)Glc
# Summary of the method: as §1
# [4] = target: Neu5Ac(a2-3)[GalNAc(b1-4)]Gal(b1-4)GlcNAc
# Summary of the method: as §1
# [5] = target: Neu5Ac(a2-3)[GalNAc(b1-4)]Gal(b1-4)GlcNAc(b1-3)GalNAc
# Summary of the method: as §1
# [6] = target: Neu5Ac(a2-3)[Neu5Ac(a2-6)]GalNAc
# Summary of the method: as §1
# Neu5Ac(a2-6)Gal = target: Neu5Ac(a2-6)Gal
# Summary of the method: as §1
# Neu5Ac(a2-6)Gal(b1-4)Glc = target: Neu5Ac(a2-6)Gal(b1-4)Glc
# Summary of the method: as §1
# [7] = target: Neu5Ac(a2-6)Gal(b1-4)GlcNAc
# Summary of the method: as §1
# [8] = target: Neu5Ac(a2-6)Gal(b1-4)GlcNAc(b1-2)Man(a1-3)Man(b1-4)GlcNAc(b1-4)GlcNAc
# Summary of the method: as §1
# [9] = target: Neu5Ac(a2-6)Gal(b1-4)GlcNAc(b1-2)Man(a1-3)[Gal(b1-4)GlcNAc(b1-2)Man(a1-6)]Man(b1-4)GlcNAc(b1-4)GlcNAc
# Summary of the method: as §1
# [10] = target: Neu5Ac(a2-6)Gal(b1-4)GlcNAc(b1-2)Man(a1-3)[GlcNAc(b1-2)Man(a1-6)]Man(b1-4)GlcNAc(b1-4)GlcNAc
# Summary of the method: as §1
# [11] = target: Neu5Ac(a2-6)Gal(b1-4)GlcNAc(b1-2)Man(a1-3)[GlcNAc(b1-2)Man(b1-4)GlcNAc(b1-2)Man(a1-6)]Man(b1-4)GlcNAc(b1-4)GlcNAc
# Summary of the method: as §1
# [12] = target: Neu5Ac(a2-6)Gal(b1-4)GlcNAc(b1-2)Man(a1-3)[Man(a1-6)]Man(b1-4)GlcNAc(b1-4)GlcNAc
# Summary of the method: as §1
# [13] = target: Neu5Ac(a2-6)Gal(b1-4)GlcNAc(b1-2)Man(a1-3)[Neu5Ac(a2-6)Gal(b1-4)GlcNAc(b1-2)Man(a1-6)]Man(b1-4)GlcNAc(b1-4)GlcNAc
# Summary of the method: as §1
# [14] = target: Neu5Ac(a2-6)Gal(b1-4)GlcNAc(b1-2)Man(a1-6)Man(b1-4)GlcNAc(b1-4)GlcNAc
# Summary of the method: as §1
# [15] = target: Neu5Ac(a2-6)Gal(b1-4)GlcNAc(b1-2)Man(a1-6)[Gal(b1-4)GlcNAc(b1-2)Man(a1-3)]Man(b1-4)GlcNAc(b1-4)GlcNAc
# Summary of the method: as §1
# [16] = target: Neu5Ac(a2-6)Gal(b1-4)GlcNAc(b1-2)Man(a1-6)[GlcNAc(b1-2)Man(a1-3)]Man(b1-4)GlcNAc(b1-4)GlcNAc
# Summary of the method: as §1
# [17] = target: Neu5Ac(a2-6)Gal(b1-4)GlcNAc(b1-2)Man(a1-6)[Man(a1-3)]Man(b1-4)GlcNAc(b1-4)GlcNAc
# Summary of the method: as §1
# [18] = target: Neu5Ac(a2-6)Gal(b1-4)GlcNAc(b1-3)Gal(b1-3)GlcNAc
# Summary of the method: as §1
# [19] = target: Neu5Ac(a2-6)Gal(b1-4)GlcNAc(b1-3)Gal(b1-4)GlcNAc
# Summary of the method: as §1
# [20] = target: Neu5Ac(a2-6)Gal(b1-4)GlcNAc(b1-3)Gal(b1-4)GlcNAc(b1-3)Gal(b1-4)GlcNAc
# Summary of the method: as §1
# [21] = target: Neu5Ac(a2-6)Gal(b1-4)GlcNAc(b1-3)Gal(b1-4)[Fuc(a1-3)]GlcNAc(b1-3)Gal(b1-4)[Fuc(a1-3)]GlcNAc
# Summary of the method: as §1
# [22] = target: Neu5Ac(a2-6)Gal(b1-4)GlcNAc(b1-3)GalNAc
# Summary of the method: as §1
# [23] = target: Neu5Ac(a2-6)Gal(b1-4)GlcNAc6S
# Summary of the method: as §1
# Neu5Ac(a2-6)GalNAc = target: Neu5Ac(a2-6)GalNAc
# Summary of the method: as §1
# [24] = target: Neu5Ac(a2-6)GalNAc(b1-4)GlcNAc
# Summary of the method: as §1
# [25] = target: Neu5Ac(a2-6)GlcNAc(b1-4)GlcNAc
# Summary of the method: as §1
# [26] = target: Neu5Ac(a2-6)GlcNAc(b1-4)GlcNAc(b1-4)GlcNAc
# Summary of the method: as §1
# Neu5Ac(a2-8)Neu5Ac = target: Neu5Ac(a2-8)Neu5Ac
# Summary of the method: as §1
# [27] = target: Neu5Ac(a2-8)Neu5Ac(a2-3)Gal(b1-4)Glc
# Summary of the method: as §1
# [28] = target: Neu5Ac(a2-8)Neu5Ac(a2-3)[GalNAc(b1-4)]Gal(b1-4)Glc
# Summary of the method: as §1
# [29] = target: Neu5Ac(a2-8)Neu5Ac(a2-8)Neu5Ac
# Summary of the method: as §1
# [30] = target: Neu5Ac(a2-8)Neu5Ac(a2-8)Neu5Ac(a2-3)Gal(b1-4)Glc
# Summary of the method: as §1
# [31] = target: Neu5Ac(a2-8)Neu5Ac(a2-8)Neu5Ac(a2-3)[GalNAc(b1-4)]Gal(b1-4)Glc
# Summary of the method: as §1
# [32] = target: Neu5Ac(a2-8)Neu5Ac(a2-8)Neu5Ac(a2-8)Neu5Ac(a2-3)[GalNAc(b1-4)]Gal(b1-4)Glc
# Summary of the method: as §1
# [33] = target: Neu5Ac(b2-6)Gal(b1-4)GlcNAc
# Summary of the method: as §1
# Neu5Ac(b2-6)GalNAc = target: Neu5Ac(b2-6)GalNAc
# Summary of the method: as §1
# [34] = target: Neu5Ac9Ac(a2-3)Gal(b1-3)GlcNAc
# Summary of the method: as §1
# [35] = target: Neu5Ac9Ac(a2-3)Gal(b1-4)GlcNAc
# Summary of the method: as §1
# [36] = target: Neu5Ac9Ac(a2-6)Gal(b1-4)GlcNAc
# Summary of the method: as §1
# [37] = target: Neu5Gc(a2-3)Gal(b1-3)GlcNAc
# Summary of the method: as §1
# [38] = target: Neu5Gc(a2-3)Gal(b1-3)[Fuc(a1-4)]GlcNAc
# Summary of the method: as §1
# Neu5Gc(a2-3)Gal(b1-4)Glc = target: Neu5Gc(a2-3)Gal(b1-4)Glc
# Summary of the method: as §1
# [39] = target: Neu5Gc(a2-3)Gal(b1-4)GlcNAc
# Summary of the method: as §1
# [40] = target: Neu5Gc(a2-3)Gal(b1-4)[Fuc(a1-3)]GlcNAc
# Summary of the method: as §1
# [41] = target: Neu5Gc(a2-6)Gal(b1-4)GlcNAc
# Summary of the method: as §1
# Neu5Gc(a2-6)GalNAc = target: Neu5Gc(a2-6)GalNAc
# Summary of the method: as §1
# [42] = target: Neu5Gc(b2-6)Gal(b1-4)GlcNAc
# Summary of the method: as §1
binder,measurement,setting,value
"Gal 3 (Homo sapiens), P17931 (protein) MADNFSLHDALSGSGNPNPQGWPGAWGNQPAGAGGYPGASYPGAYPGQAPPGAYPGQAPPGAYHGAPGAYPGAPAPGVYPGPPSGPGAYPSSGQPSAPGAYPATGPYGAPAGPLIVPYNLPLPGGVVPRMLITILGTVKPNANILDFQRGNDVAFHFNPRFNENNRRVIVCNTKLDNNWGREEIQSVFPFESGKPFKIQVLVEPDHFKVAVNDAHLLQYNHRVKKLNEISKLGISGDIDLTSASYTMI",glycan array binding signal (z-score),[1],0.163
same,glycan array binding signal (z-score),Neu5Ac(a2-3)GalNAc,-0.2
same,glycan array binding signal (z-score),[2],-0.161
same,glycan array binding signal (z-score),[3],-0.189
same,glycan array binding signal (z-score),[4],-0.177
same,glycan array binding signal (z-score),[5],-0.192
same,glycan array binding signal (z-score),[6],-0.193
same,glycan array binding signal (z-score),Neu5Ac(a2-6)Gal,-0.166
same,glycan array binding signal (z-score),Neu5Ac(a2-6)Gal(b1-4)Glc,-0.189
same,glycan array binding signal (z-score),[7],-0.02
same,glycan array binding signal (z-score),[8],-0.155
same,glycan array binding signal (z-score),[9],-0.156
same,glycan array binding signal (z-score),[10],-0.151
same,glycan array binding signal (z-score),[11],0.736
same,glycan array binding signal (z-score),[12],-0.129
same,glycan array binding signal (z-score),[13],0.034
same,glycan array binding signal (z-score),[14],-0.139
same,glycan array binding signal (z-score),[15],-0.176
same,glycan array binding signal (z-score),[16],-0.173
same,glycan array binding signal (z-score),[17],-0.186
same,glycan array binding signal (z-score),[18],-0.146
same,glycan array binding signal (z-score),[19],0.078
same,glycan array binding signal (z-score),[20],-0.107
same,glycan array binding signal (z-score),[21],-0.183
same,glycan array binding signal (z-score),[22],0.046
same,glycan array binding signal (z-score),[23],-0.186
same,glycan array binding signal (z-score),Neu5Ac(a2-6)GalNAc,-0.095
same,glycan array binding signal (z-score),[24],-0.157
same,glycan array binding signal (z-score),[25],-0.196
same,glycan array binding signal (z-score),[26],-0.157
same,glycan array binding signal (z-score),Neu5Ac(a2-8)Neu5Ac,-0.178
same,glycan array binding signal (z-score),[27],-0.192
same,glycan array binding signal (z-score),[28],0.11
same,glycan array binding signal (z-score),[29],-0.048
same,glycan array binding signal (z-score),[30],-0.046
same,glycan array binding signal (z-score),[31],0.114
same,glycan array binding signal (z-score),[32],-0.173
same,glycan array binding signal (z-score),[33],-0.199
same,glycan array binding signal (z-score),Neu5Ac(b2-6)GalNAc,-0.167
same,glycan array binding signal (z-score),[34],-0.19
same,glycan array binding signal (z-score),[35],-0.093
same,glycan array binding signal (z-score),[36],-0.185
same,glycan array binding signal (z-score),[37],0.124
same,glycan array binding signal (z-score),[38],-0.11
same,glycan array binding signal (z-score),Neu5Gc(a2-3)Gal(b1-4)Glc,-0.178
same,glycan array binding signal (z-score),[39],-0.157
same,glycan array binding signal (z-score),[40],-0.165
same,glycan array binding signal (z-score),[41],-0.181
same,glycan array binding signal (z-score),Neu5Gc(a2-6)GalNAc,-0.142
same,glycan array binding signal (z-score),[42],-0.169
